Experimental data from publication PMC4336329 (PLoS ONE, 2015).
In all, about 310,000 compounds went through this assay and about 2,200 (0.71%) showed an effect of 50% or more. The effect is printed as a negative number. Some of the results follow.

Each molecule was assayed against human ether-à-go-go-related gene (hERG) potassium channel (human, UniProt Q12809) (assay: primary screen, population patch clamp on CHO cells stably expressing hERG).
Chain of human ether-à-go-go-related gene (hERG) potassium channel (Q12809 whole entry, looked up): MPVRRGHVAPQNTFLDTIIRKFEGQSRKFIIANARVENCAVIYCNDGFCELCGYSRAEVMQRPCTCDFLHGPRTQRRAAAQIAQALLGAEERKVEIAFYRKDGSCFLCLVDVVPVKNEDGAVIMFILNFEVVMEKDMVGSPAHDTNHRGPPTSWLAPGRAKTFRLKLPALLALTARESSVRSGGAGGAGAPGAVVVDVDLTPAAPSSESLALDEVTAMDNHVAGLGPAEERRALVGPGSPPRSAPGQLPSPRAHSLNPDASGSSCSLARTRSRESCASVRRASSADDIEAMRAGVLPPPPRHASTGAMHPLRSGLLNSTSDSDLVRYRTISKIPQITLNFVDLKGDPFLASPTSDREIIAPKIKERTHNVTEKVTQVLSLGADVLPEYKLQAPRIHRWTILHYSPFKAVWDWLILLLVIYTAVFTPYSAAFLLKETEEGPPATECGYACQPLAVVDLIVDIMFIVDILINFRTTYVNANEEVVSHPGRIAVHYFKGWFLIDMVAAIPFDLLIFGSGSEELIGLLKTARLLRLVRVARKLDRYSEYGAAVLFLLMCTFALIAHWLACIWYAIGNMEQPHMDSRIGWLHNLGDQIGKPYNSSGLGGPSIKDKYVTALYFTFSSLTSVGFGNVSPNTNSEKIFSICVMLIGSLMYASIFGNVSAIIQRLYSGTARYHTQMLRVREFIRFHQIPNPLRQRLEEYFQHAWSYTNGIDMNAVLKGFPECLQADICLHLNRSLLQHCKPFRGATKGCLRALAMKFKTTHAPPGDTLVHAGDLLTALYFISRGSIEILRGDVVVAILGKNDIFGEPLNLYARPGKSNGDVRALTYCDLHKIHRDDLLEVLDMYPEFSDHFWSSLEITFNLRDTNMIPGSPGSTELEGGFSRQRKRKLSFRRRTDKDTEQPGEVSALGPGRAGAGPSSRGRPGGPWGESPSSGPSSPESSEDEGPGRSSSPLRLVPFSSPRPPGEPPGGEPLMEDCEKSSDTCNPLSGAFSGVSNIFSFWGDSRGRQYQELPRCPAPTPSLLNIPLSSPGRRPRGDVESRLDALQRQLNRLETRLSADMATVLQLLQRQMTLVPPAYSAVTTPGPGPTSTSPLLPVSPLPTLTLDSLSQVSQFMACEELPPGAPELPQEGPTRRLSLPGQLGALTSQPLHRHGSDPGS

Row | SMILES | hERG current change (%, negative = inhibition) at 1uM
1 | CC1(C)CNC(=O)CC(C)(C)N1O | 3.77%
2 | O=c1c(Cl)c(N2CCN(c3ccc(F)cc3)CC2)cnn1C12CC3CC(CC(C3)C1)C2 | 2.19%
3 | c1ccc(CCCNc2ncccn2)cc1 | 16.1%
4 | CCOc1ccc(CCNC(=O)c2[nH]c(C)c(C(C)=O)c2C)cc1OCC | 9.58%
5 | Cc1cc(C)cc(NS(=O)(=O)c2ccc(NC(=S)NC(=O)c3cccs3)cc2)c1 | 4.56%
6 | Cc1nn(Cc2c(F)cccc2Cl)c(=O)c2ccccc12 | 14%
7 | COc1ccc2c(c1)c(CC[NH3+])c(C)n2Cc1ccccc1.[Cl-] | 10.4%
8 | COc1ccc(N=c2oc3cc(O)ccc3cc2C(=O)Nc2ccccn2)cc1OC | 14.3%
9 | O=C(Nc1cc(Cl)ccc1N1CCOCC1)c1cccnc1Cl | -1.16%
10 | Cc1ccc(C)c(N(C(=O)Cn2nnc3ccccc32)C(C(=O)NC(C)(C)C)c2ccsc2)c1 (stereo not drawn) | 7.28%
11 | Cc1ccc(N(CC(=O)Nc2ccc(S(=O)(=O)N3CCOCC3)cc2)S(C)(=O)=O)cc1C | 3.47%
12 | Cc1ccccc1CNC(=O)c1ccc(Cl)c([N+](=O)[O-])c1 | 12.7%
13 | O=C(O)COc1ccccc1/C=N/Nc1ccc(S(=O)(=O)Nc2ccc(Cl)cc2)cc1[N+](=O)[O-] | 16.4%
14 | CC(N)C(=O)c1ccco1.Cl (stereo not drawn) | 8.75%
15 | CC(C)OCCCNS(=O)(=O)c1ccc2ccccc2c1 | -6.06%
16 | Cc1ccc2nc3n(c(=O)c2c1)CCCCC3 | 5.69%
17 | COc1ccccc1Cn1c(=O)c2ccccc2n2c(Sc3ncnc4sccc34)nnc12 | -2.48%
18 | CN1CCN(/C=N/c2c(C#N)cnn2Cc2ccccc2)CC1 | 0.374%
19 | Cc1ccc(S(=O)(=O)CCC(=O)N(CCN2CCOCC2)c2nc3ccccc3s2)cc1.Cl | 8.14%

Row | SMILES | hERG current change (%, negative = inhibition) at 1uM
20 | COc1cc2nc(C3CCC3)n(NC(=O)C3CCC(OC)CC3)c(=O)c2cc1OC (stereo not drawn) | -6.57%
21 | COc1ccc(C(Sc2ccccc2)c2ccccc2)cc1OC (stereo not drawn) | 10.5%
22 | CCC(C)(C)NC(=O)CN(C(=O)C(=O)Nc1ccc2c(c1)OCCO2)N1CCOCC1 | 3.1%
23 | CC(C)CCNC(=O)C1CC(c2cccc(F)c2)=NO1 (stereo not drawn) | 8.7%
24 | O=c1[nH]c(SCc2ccccc2Cl)nc2c1cnn2-c1ccccc1 | 12%
25 | O=C(Nc1ccccc1)c1ccc(NCC2CCCO2)c(S(=O)(=O)N2CCOCC2)c1 (stereo not drawn) | 11.5%
26 | Cc1onc(-c2ccccc2Cl)c1C(=O)Nc1nc2ccc(S(C)(=O)=O)cc2s1 | 13.8%
27 | Cc1cc(C)n(-c2nc(NCCCN(C)C)c3c4c(sc3n2)CCCC4)n1 | -7.25%
28 | COc1cccc(NC(=O)C(Sc2nnnn2C)c2ccccc2)c1 (stereo not drawn) | 21.7%
29 | CCNC(=O)C1CCCc2c1[nH]c1ccc(Cl)cc21 (stereo not drawn) | 14%
30 | COc1ccc(N=C2S/C(=C\c3ccc(C)o3)C(=O)N2CC(C)C)cc1 | 14.5%
31 | CCO[C@H]1OC(C(=O)NCc2ccccc2)=C[C@@H](c2ccc(C(F)(F)F)cc2)[C@@H]1CCCO | 13.1%
32 | O=C(NCC1(c2ccccc2)CCCC1)c1ccc(Br)o1 | 17.8%
33 | Cn1c(=O)n(C)c2cc([N+](=O)[O-])c(N3CCN(C(=O)c4ccc(F)cc4)CC3)cc21 | -6.22%
34 | CCc1c(C)nc2c(C#N)c[nH]n2c1=O | 23%
35 | CCS(=O)(=O)c1ccc2oc(SCC(=O)NCc3ccccc3)nc2c1 | -12.6%
36 | COc1ccccc1NC(=O)CSc1ncnc2c1oc1ccccc12 | 10.2%
37 | N#CC1=C(N)Oc2cc(N)ccc2C1C1CCCCC1 (stereo not drawn) | 7.89%
38 | CCC/C(O)=C1\C(=O)CCCC1=NCCc1c(C)[nH]c2ccc(C)cc12 | 11.1%

Row | SMILES | hERG current change (%, negative = inhibition) at 1uM
39 | CCOC(=O)c1ccc(-c2ccc3c(c2)CCC3)nc1C | 16%
40 | COc1ccc(NC(=O)CCc2c(C)nn(-c3ccc(N4CCOCC4)nn3)c2C)cc1 | 2.56%
41 | COC(=O)C1=C(NC(=O)c2ccccc2[N+](=O)[O-])CCS1 | 11.1%
42 | CCO[C@H]1OC(C(=O)O)=C[C@@H](C(C)(C)C)[C@@H]1CCCO | 9.3%
43 | CCOc1cc(C(c2c(C)[nH][nH]c2=O)c2c(C)[nH][nH]c2=O)cc([N+](=O)[O-])c1O | 12.5%
44 | O=C(CCS(=O)(=O)c1ccccc1)Nc1nnc(C(F)(F)F)s1 | 13.2%
45 | N#C/C(=N\Nc1ccc(Br)cc1)C(=N)N1CCOCC1 | -16%
46 | CCCNc1nc(NCC)nc(OC)n1 | 23.8%
47 | CN1CCN(C(=O)c2ccc(N(Cc3ccccc3Cl)S(C)(=O)=O)cc2)CC1 | 11%
48 | O=C(Nc1ccc(F)c([N+](=O)[O-])c1)N1C[C@H]2C[C@@H](C1)c1cccc(=O)n1C2 | 13.9%
49 | CCCCCCC(=O)N(O)C1CC(=O)N(c2ccc(C)cc2)C1=O (stereo not drawn) | 8.07%
50 | N#Cc1ccc(COc2cccnc2[N+](=O)[O-])cc1 | 4.44%
51 | Cc1c(C)c2ccc(OCC(=O)Nc3ccccn3)c(C)c2oc1=O | 10.8%
52 | Cc1nn(CC(=O)Nc2nnc(CC(=O)N3CCCC3)s2)c(=O)c2ccccc12 | 11.5%
53 | CC(C)NCc1cc(Br)ccc1OCc1ccccc1.Cl | -9.35%
54 | CCOc1cccc(CN2CCCC(N3CCc4ccccc4C3)C2)c1O (stereo not drawn) | -7.07%
55 | Cc1ccc(OCC(=O)Nc2cccc(S(=O)(=O)NC3=NCCCCC3)c2)cc1C | 7.24%
56 | CC(O)CNc1cnccn1 (stereo not drawn) | -2.14%
57 | CC(OC(=O)c1ccccc1NCCO)C(=O)NC1CCCCC1C (stereo not drawn) | -5.1%
